# Results taken from PubChem BioAssay (Tox21).
# Where “and” joins values, the source holds several entries; their conditions need not be identical. Identical values can stand only once. This list was built around the results that the source calls inconclusive (neither active nor inactive); the mix of calls is not that of the screen. A potency beside an inconclusive call is a rough fit, not a confirmed value. Calls of active or inactive are those of the source. Calls come from the whole dose curve; as a rule, active = well fitted curve in the direction sought with a large enough effect in the repeat runs; inconclusive = weak or mixed curves; inactive = no such curve, though single readings can be large; an effect the other way counts as inactive or inconclusive.
# Test system: not listed separately
# Test: qHTS assay to identify small molecule antagonists of the estrogen related receptor (ERR) signaling pathway from Tox21 library - cell viability counter screen (AID 1224834); note: nearly all actives have a fitted effect of over 30% in size; for viability change, negative = cytotoxic: % is set by controls: 0 for no effect and ±100 for the full control effect
# Conditions: ERR reporter cells viability, CellTiter-Fluor, 17.5 h; series mostly up to 92.4 µM; viability change, negative = cytotoxic: at the top concentration
# How it was run: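 Cytotoxicity of test substances is gauged in the same ERR cells used for the antagonist screen, after 17.5 h of compound treatment at 37 C, by CellTiter-Fluor fluorescence measured after 30 min.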
# Potency is the fitted concentration of half-maximal effect; tags give direction and shape of the fitted curve.
Structure (SMILES),"viability change, negative = cytotoxic",Potency
CC(C)OC(=S)S,inactive: -8.12%,
CCOCN(C(=O)CCl)c1c(C)cccc1CC,,"inconclusive: 51.4 µM [cytotoxic, partial curve] and inconclusive: 68.6 µM [cytotoxic, single point]"
Cl/C=C/CCl,inactive: 0.0684%,
CC(C)(C)C(O)C(Oc1ccc(-c2ccccc2)cc1)n1cncn1 (configuration not stated),,"inconclusive: 48.6 µM [cytotoxic, partial curve]"
CCC(=O)C(CC(C)N(C)C)(c1ccccc1)c1ccccc1 (configuration not stated),,"inconclusive: 61.4 µM [cytotoxic, single point] and inconclusive: 68.1 µM [cytotoxic, partial curve, poor fit]"

# Molecular target: Luciferin 4-monooxygenase (Photinus pyralis) (UniProt P08659)
# Test: qHTS assay to identify small molecule inhibitors of firefly luciferase (AID 1224835); note: nearly all actives have a fitted effect of over 25% in size
# Conditions: purified P. pyralis luciferase, luminescence inhibition; series mostly up to 115 µM; activity change, negative = inhibition: at the top concentration
# How it was run: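 Inhibition of purified Photinus luciferase is measured by luminescence. Substrate levels (D-luciferin, ATP) sit at their KM values. Each compound is tested in a concentration series.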
# Sequence of UniProt P08659 (P08659 whole entry, looked up): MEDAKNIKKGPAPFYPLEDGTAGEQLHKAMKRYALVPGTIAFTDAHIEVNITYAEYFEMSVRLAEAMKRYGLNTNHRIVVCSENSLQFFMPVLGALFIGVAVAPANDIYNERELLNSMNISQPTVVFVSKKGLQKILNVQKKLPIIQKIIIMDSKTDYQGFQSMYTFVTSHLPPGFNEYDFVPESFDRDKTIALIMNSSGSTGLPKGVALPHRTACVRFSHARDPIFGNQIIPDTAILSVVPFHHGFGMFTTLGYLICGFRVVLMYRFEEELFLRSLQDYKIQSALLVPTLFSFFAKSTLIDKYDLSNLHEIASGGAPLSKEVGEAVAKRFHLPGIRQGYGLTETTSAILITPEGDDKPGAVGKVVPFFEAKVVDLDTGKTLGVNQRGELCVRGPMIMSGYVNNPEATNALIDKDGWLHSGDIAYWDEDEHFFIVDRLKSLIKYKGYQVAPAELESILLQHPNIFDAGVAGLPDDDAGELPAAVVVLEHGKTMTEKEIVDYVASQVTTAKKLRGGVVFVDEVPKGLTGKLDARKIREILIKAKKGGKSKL
row,Structure (SMILES),Potency
1,c1ccc(-c2cccc(-c3ccccc3)c2)cc1,active: 9.03 µM and active: 7.96 µM
2,CN(C)C1CSSSC1,"inconclusive: 31.7 µM [inhibitor, partial curve]"
3,SCc1ccccc1,"inconclusive: 73.1 µM [inhibitor, partial curve, poor fit]"
4,Nc1ccc(-c2ccc(N)cc2)cc1,"inconclusive: 79.6 µM [inhibitor, single point]"
5,CCCCOC(=O)COC(=O)c1ccccc1C(=O)OCCCC,active: 12.6 µM and active: 35.6 µM
6,CCOP(=S)(OCC)Oc1ncn(-c2ccccc2)n1,"inconclusive: 35.6 µM [inhibitor, partial curve]"
7,O=S(=O)(O)C(F)(F)C(F)(F)C(F)(F)C(F)(F)C(F)(F)C(F)(F)C(F)(F)C(F)(F)F,"inconclusive: 63.3 µM [inhibitor, partial curve, poor fit]"
